{
  "source": "paper PMC4336329",
  "about": "(PLoS ONE, 2015)",
  "note": "About 2,200 (0.71%) of roughly 310,000 compounds showed an effect of 50% or more. Effects have a minus sign here. The list shows a part of the results.",
  "data": [
    {"molecular_target": "human ether-à-go-go-related gene (hERG) potassium channel (human, UniProt Q12809)", "sequence (Q12809 whole entry, looked up)": "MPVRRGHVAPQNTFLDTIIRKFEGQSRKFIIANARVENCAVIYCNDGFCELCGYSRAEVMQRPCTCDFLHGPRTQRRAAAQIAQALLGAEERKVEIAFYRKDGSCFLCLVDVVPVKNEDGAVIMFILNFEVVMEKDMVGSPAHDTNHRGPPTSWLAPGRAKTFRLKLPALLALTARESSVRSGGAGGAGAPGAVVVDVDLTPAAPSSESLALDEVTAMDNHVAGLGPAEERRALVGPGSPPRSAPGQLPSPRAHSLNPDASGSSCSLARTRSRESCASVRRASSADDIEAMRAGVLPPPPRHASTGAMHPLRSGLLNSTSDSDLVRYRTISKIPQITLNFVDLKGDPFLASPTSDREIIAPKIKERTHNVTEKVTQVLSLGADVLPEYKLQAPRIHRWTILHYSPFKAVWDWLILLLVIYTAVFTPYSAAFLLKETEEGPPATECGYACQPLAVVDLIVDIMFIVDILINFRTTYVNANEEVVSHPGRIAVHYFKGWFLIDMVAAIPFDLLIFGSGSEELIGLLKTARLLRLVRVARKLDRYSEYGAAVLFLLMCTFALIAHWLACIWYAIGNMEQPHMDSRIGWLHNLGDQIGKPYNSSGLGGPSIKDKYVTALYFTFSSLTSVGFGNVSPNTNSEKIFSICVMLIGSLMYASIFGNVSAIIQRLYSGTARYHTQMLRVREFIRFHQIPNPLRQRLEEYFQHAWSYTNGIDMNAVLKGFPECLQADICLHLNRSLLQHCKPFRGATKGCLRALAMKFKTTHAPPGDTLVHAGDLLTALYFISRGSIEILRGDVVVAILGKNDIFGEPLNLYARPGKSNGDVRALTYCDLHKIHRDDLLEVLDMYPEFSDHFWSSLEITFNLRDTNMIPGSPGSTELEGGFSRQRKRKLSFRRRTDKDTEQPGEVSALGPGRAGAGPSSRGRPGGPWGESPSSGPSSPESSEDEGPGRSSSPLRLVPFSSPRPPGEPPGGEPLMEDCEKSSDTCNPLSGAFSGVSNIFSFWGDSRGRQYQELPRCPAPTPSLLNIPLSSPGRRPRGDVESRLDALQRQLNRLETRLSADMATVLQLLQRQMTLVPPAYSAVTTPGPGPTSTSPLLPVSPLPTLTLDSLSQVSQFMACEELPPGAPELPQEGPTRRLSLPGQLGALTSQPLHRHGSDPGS", "assay": "primary screen, population patch clamp on CHO cells stably expressing hERG", "units": {"hERG current change (%, negative = inhibition) at 1uM": "%"}, "values": [
      {"smiles": "OCCN(Cc1ccccc1)CC1CCCCC1", "hERG current change (%, negative = inhibition) at 1uM": 4.24},
      {"smiles": "CCOc1ccc(NC(=O)Cn2nc(C(N)=O)c3ccccc3c2=O)cc1S(=O)(=O)N1CCCC1", "hERG current change (%, negative = inhibition) at 1uM": 4.75},
      {"smiles": "CCOc1ncc(S(=O)(=O)N2CCN(CC)CC2)cc1C(=O)O", "hERG current change (%, negative = inhibition) at 1uM": 15.2},
      {"smiles": "COCCCNC(=O)c1cn(Cc2c(F)cccc2Cl)nn1", "hERG current change (%, negative = inhibition) at 1uM": -0.167},
      {"smiles": "O=[N+]([O-])c1ccccc1/C=N/Nc1nnc(-c2ccccc2)c(-c2ccccc2)n1", "hERG current change (%, negative = inhibition) at 1uM": 12.8},
      {"smiles": "O=C(COC(=O)/C=C/c1ccc(C(F)(F)F)cc1)NC1CCS(=O)(=O)C1", "note": "(centres unmarked)", "hERG current change (%, negative = inhibition) at 1uM": 20},
      {"smiles": "CC1CCCCC1NC(=O)Cn1c(=O)oc2cc(S(=O)(=O)N3CCCC3)ccc21", "note": "(centres unmarked)", "hERG current change (%, negative = inhibition) at 1uM": 16.9},
      {"smiles": "Cn1cnnc1SCC(=O)Nc1ncc(C(F)(F)F)cc1Cl", "hERG current change (%, negative = inhibition) at 1uM": 10.8},
      {"smiles": "O=C(CN1C(=O)COc2ccccc21)NCc1ccc(C(=O)O)cc1", "hERG current change (%, negative = inhibition) at 1uM": 9.44},
      {"smiles": "O=C(Nc1nncs1)c1ccccc1NS(=O)(=O)c1cccs1", "hERG current change (%, negative = inhibition) at 1uM": 17.3},
      {"smiles": "Oc1ccc(C23CCCC2C2(CCCC2)c2ccc(O)cc2O3)c(O)c1", "note": "(centres unmarked)", "hERG current change (%, negative = inhibition) at 1uM": 0.346},
      {"smiles": "COc1ccc(N(CC(=O)N2CCC(C)CC2)S(=O)(=O)c2c(C)nn(C)c2C)cc1", "hERG current change (%, negative = inhibition) at 1uM": -3.44},
      {"smiles": "Cc1nc(SCC(=O)Nc2cc(Cl)ccc2[N+](=O)[O-])nc(C)c1C", "hERG current change (%, negative = inhibition) at 1uM": 13.8},
      {"smiles": "CC(=O)O[C@@H]1[C@@]2(C)O[C@H]2CC[C@]23O[C@H]2[C@H](OC3=O)C2=C(C)C(=O)O[C@@]21O", "hERG current change (%, negative = inhibition) at 1uM": 11.3},
      {"smiles": "Cc1cc(C)n(CCN(C)C(=O)CCc2nnc(-c3ccc4c(c3)OCO4)o2)n1", "hERG current change (%, negative = inhibition) at 1uM": -1.26},
      {"smiles": "Cc1cc(C)c(C)c(S(=O)(=O)NCCCN2CCCC2=O)c1C", "hERG current change (%, negative = inhibition) at 1uM": 2.35},
      {"smiles": "COc1ccc(Cc2noc(CN3CCN(Cc4cccc(Cl)c4)CC3)n2)cc1OC", "hERG current change (%, negative = inhibition) at 1uM": 6.24},
      {"smiles": "NC(=O)c1nsc(C(=O)N(CC(=O)NC2CCCC2)c2cccc(C(F)(F)F)c2)c1N", "hERG current change (%, negative = inhibition) at 1uM": -4.62},
      {"smiles": "CCOc1cc(-c2nc(-c3ccccc3OC)no2)cc(OCC)c1OCC", "hERG current change (%, negative = inhibition) at 1uM": 7.99},
      {"smiles": "O=C(O)Cn1cc(C(=O)c2ccccc2)c2ccccc21", "hERG current change (%, negative = inhibition) at 1uM": 4.8},
      {"smiles": "Cc1cc(C)c(C#N)c(SCC(O)CS(=O)(=O)Cc2ccccc2)n1", "note": "(centres unmarked)", "hERG current change (%, negative = inhibition) at 1uM": 11.8},
      {"smiles": "C=CCNC(=O)COC(=O)c1oc2ccccc2c1CSC1CCCCC1", "hERG current change (%, negative = inhibition) at 1uM": -0.3},
      {"smiles": "COCCOC(=O)c1c(C)n(C)c2ccc(OC(=O)c3ccccc3OC)cc12", "hERG current change (%, negative = inhibition) at 1uM": 20.2},
      {"smiles": "O=c1oc(CCO)cc2ccc(-c3ccc4[nH]ccc4c3)cc12", "hERG current change (%, negative = inhibition) at 1uM": 15.1},
      {"smiles": "COc1cc(NC2c3ccccc3C(=O)N2Cc2ccc3c(c2)OCO3)cc(OC)c1OC", "note": "(centres unmarked)", "hERG current change (%, negative = inhibition) at 1uM": 11.3},
      {"smiles": "COc1ccc(S(=O)(=O)Nc2noc3ccccc23)cc1", "hERG current change (%, negative = inhibition) at 1uM": 15.1},
      {"smiles": "O=C(CSc1ccc2nnc(-c3cccnc3)n2n1)N1CCOCC1", "hERG current change (%, negative = inhibition) at 1uM": -0.455},
      {"smiles": "O/N=C/C1=C(Cl)c2ccccc2CC1", "hERG current change (%, negative = inhibition) at 1uM": 2.45},
      {"smiles": "CC(=O)Nc1ccc(S(=O)(=O)NCCC(=O)OCC(=O)c2ccccc2)cc1", "hERG current change (%, negative = inhibition) at 1uM": 6.41},
      {"smiles": "O=C(NCCCn1ccnc1)c1ccc(Cl)s1", "hERG current change (%, negative = inhibition) at 1uM": 11.2},
      {"smiles": "O=C(CN(C(=O)CNC(=O)c1cccs1)c1ccc(F)cc1)NC1CCCCC1", "hERG current change (%, negative = inhibition) at 1uM": 8.13},
      {"smiles": "N/C(=N\\S(=O)(=O)c1cc(C(F)(F)F)cc(C(F)(F)F)c1)c1ccc(Cl)cc1", "hERG current change (%, negative = inhibition) at 1uM": 7.79},
      {"smiles": "COc1cccc(/C=N/Nc2ncnc3c2[nH]c2ccc(C)cc23)c1OC", "hERG current change (%, negative = inhibition) at 1uM": 14.1},
      {"smiles": "NNC(=O)c1csc(Cc2c(Cl)sc3ccc(Cl)cc23)n1", "hERG current change (%, negative = inhibition) at 1uM": 14.8},
      {"smiles": "CC(=O)c1cnc(SCc2ccc(Cl)cc2)nc1C", "hERG current change (%, negative = inhibition) at 1uM": 15.1},
      {"smiles": "CCOCCCNC(=O)N[C@@H](C)C(=O)OC", "hERG current change (%, negative = inhibition) at 1uM": 3.27},
      {"smiles": "CCN(CC)CCNc1ncnc2c1sc1nc(N3CCCC3)c3c(c12)CC(C)(C)OC3", "hERG current change (%, negative = inhibition) at 1uM": -3.38},
      {"smiles": "Cc1ccc2[nH]cc(C(=O)CN3CCN(c4ccccc4F)CC3)c2c1", "hERG current change (%, negative = inhibition) at 1uM": -1.44},
      {"smiles": "Cc1nn(Cc2ccccc2)c(C)c1CNC(=O)c1ccc(F)c(S(=O)(=O)N2CCOCC2)c1", "hERG current change (%, negative = inhibition) at 1uM": -14.5},
      {"smiles": "N#CCCN1CCN(S(=O)(=O)c2ccc(S(=O)(=O)NC3CCCC3)cc2)CC1", "hERG current change (%, negative = inhibition) at 1uM": -0.309},
      {"smiles": "CCc1nonc1NC(=O)c1oc2cc(C)c(C)cc2c1C", "hERG current change (%, negative = inhibition) at 1uM": 16.1},
      {"smiles": "Cc1ccc2nc3c(cc(C(=O)NC4CCCC4)c(=N)n3CCCn3ccnc3)c(=O)n2c1", "hERG current change (%, negative = inhibition) at 1uM": -2.46},
      {"smiles": "O=C(CN1C(=O)c2ccccc2S1(=O)=O)NCc1ccccc1Cl", "hERG current change (%, negative = inhibition) at 1uM": 8.29},
      {"smiles": "COc1ccc(-c2cc(COc3ccccc3)on2)cc1", "hERG current change (%, negative = inhibition) at 1uM": 27.2}
    ]}
  ]
}
